Measurements: the supplement of paper PMC6206098
± gives the uncertainty stated by the source. Shown are siRNA guide strands that differ only in the seed, positions 2 to 7.

What was measured:
3LL = assay: cell viability relative to siNT1 control; higher = less toxic; details: concentration: 10 nM; 96 h; Mus musculus;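 further: Luminescence-based viability of cells reverse transfected in 384-well plates with lipid-complexed siRNAs built on a non-toxic 19mer backbone whose passenger strand carries 2′-O-methyl groups at positions 1 and 2, triplicates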
M565 = assay: cell viability relative to lipid-only control; HeyA8 human ovarian and H460 human lung cancer; M565 mouse liver and 3LL mouse lung cancer; siNT1 is a non-toxic control siRNA; higher = less toxic; details: concentration: 10 nM; 96 h; Mus musculus
Procedure: (§1)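 Arrayed screen of 4096 siRNA duplexes, each carrying one of all possible 6mer seeds at guide-strand positions 2-7 in a fixed neutral 19mer scaffold (constant flanks: U at position 1, then ACAUGUAAACCA, plus a 3' AA overhang). The passenger strand is 2'-O-methylated at positions 1-2 so only the guide strand loads into RISC. Duplexes were reverse-transfected at 10 nM with RNAiMAX in triplicate in 384-well plates; viability was read by CellTiter-Glo ATP content 96 h after transfection. Values are % viability normalised to lipid-only wells (HeyA8, H460, M565) or to siNT1 (3LL).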

HeyA8 = assay: as above; details: concentration: 10 nM; 96 h; Homo sapiens
Procedure: as §1

H460 = assay: as above; details: concentration: 10 nM; 96 h; Homo sapiens
Procedure: as §1
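Wherever cell viability relative to lipid-only control is given: reverse lipid transfection in 384-well plates, in triplicate, of duplexes on a non-toxic 19mer backbone with passenger strand 2′-O-methylated at positions 1 and 2, luminescence viability read-out.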

Sequence	cell viability (3LL) [%]	cell viability (M565) [%]	cell viability (HeyA8) [%]	cell viability (H460) [%]
UCGGGGGACAUGUAAACCAAA	66.3 ± 18	8.23 ± 4	4.27 ± 0.8	9.28 ± 0.96
UGCAAAGACAUGUAAACCAAA	84.1 ± 5.4	87.5 ± 1	79.2 ± 7	59.2 ± 5.8
UCCCGUAACAUGUAAACCAAA	104 ± 22	74.9 ± 5.9	85.3 ± 6.7	97.1 ± 22
UCCACUCACAUGUAAACCAAA	86.7 ± 18	65.3 ± 9.2	78.5 ± 11	57.2 ± 5.7
UGCGUAAACAUGUAAACCAAA	89.2 ± 10	87.69 ± 0.7	86.2 ± 7.2	72.4 ± 5.3
UUGGCCGACAUGUAAACCAAA	70.5 ± 5.1	93.9 ± 19	75.1 ± 6.8	64.1 ± 5.8
UAUUCCUACAUGUAAACCAAA	58.3 ± 3	89.4 ± 6.6	67.5 ± 11	63.8 ± 9.8
UUAGGUGACAUGUAAACCAAA	41.1 ± 6.8	56.6 ± 14	74.4 ± 2.7	79.2 ± 16
UACCAUGACAUGUAAACCAAA	81.4 ± 5.4	50.3 ± 7.4	81.2 ± 11	52.9 ± 12
UCCCCUCACAUGUAAACCAAA	95.3 ± 13	38.6 ± 12	54 ± 0.98	47.9 ± 2.8
UAACGAAACAUGUAAACCAAA	92.7 ± 10	79.8 ± 4.8	92 ± 5	65.3 ± 3.3
UCCCUUAACAUGUAAACCAAA	117 ± 26	80.4 ± 15	88.8 ± 7.7	72 ± 7
UGAAGUUACAUGUAAACCAAA	42.5 ± 8.2	18.4 ± 3.1	39 ± 2.1	58 ± 8.7
UCCGCAAACAUGUAAACCAAA	106 ± 23	79.5 ± 18	79.8 ± 3.3	62.8 ± 3.2
UAAUUACACAUGUAAACCAAA	57.4 ± 9.9	49.4 ± 10	40 ± 4.2	50 ± 8.4
UGCCCUCACAUGUAAACCAAA	12.5 ± 4.7	20.9 ± 6	10.3 ± 0.17	16.4 ± 1.5
UUCAGGGACAUGUAAACCAAA	41.3 ± 7.6	51.7 ± 9.8	75.7 ± 15	68.3 ± 4
UUGUUAGACAUGUAAACCAAA	9.9 ± 2.9	54.9 ± 8.3	58.7 ± 2.9	68.4 ± 8.1
UAUAGGAACAUGUAAACCAAA	109 ± 9	91.6 ± 8.8	91 ± 8.7	70.9 ± 4.2

Sequence	cell viability (3LL) [%]	cell viability (M565) [%]	cell viability (HeyA8) [%]	cell viability (H460) [%]
UGCAGGCACAUGUAAACCAAA	32.5 ± 1.8	21.7 ± 0.57	2.6 ± 0.21	11.4 ± 2
UCUCUAAACAUGUAAACCAAA	101 ± 11	63 ± 8	93.9 ± 14	43.9 ± 5.4
UGCUGCGACAUGUAAACCAAA	50.4 ± 18	10.5 ± 1.9	32.2 ± 3.5	67.4 ± 12
UAUUAGGACAUGUAAACCAAA	106 ± 15	117 ± 16	74.9 ± 6.9	70.2 ± 12
UUUCUCUACAUGUAAACCAAA	76 ± 7.5	79.7 ± 16	54.4 ± 5.1	29.9 ± 4.2
UUACCCAACAUGUAAACCAAA	65.3 ± 2.2	40.8 ± 8.3	50.5 ± 1.2	63.3 ± 12
UCGUUUAACAUGUAAACCAAA	88.3 ± 14	80.1 ± 4.4	82.4 ± 12	67.6 ± 3.3
UGCUAAGACAUGUAAACCAAA	87.1 ± 15	83.7 ± 6.7	76.2 ± 5.9	72.6 ± 16
UGAGAUCACAUGUAAACCAAA	32.7 ± 8.4	18.5 ± 3.6	72.3 ± 0.99	62.3 ± 4.8
UGUACCUACAUGUAAACCAAA	55.7 ± 9.5	16.7 ± 4.4	55.6 ± 3.3	54.3 ± 7.7
UCACCCGACAUGUAAACCAAA	87 ± 18	63.2 ± 3.9	72 ± 1	40.3 ± 5.7
UCGAACUACAUGUAAACCAAA	80.6 ± 16	77.4 ± 2.2	62.4 ± 6.4	76.6 ± 17
UAAUAUUACAUGUAAACCAAA	106 ± 11	96.8 ± 3.5	82.6 ± 9.2	79.3 ± 9.3
UACGCUGACAUGUAAACCAAA	91.7 ± 3.3	74.9 ± 3.7	89.5 ± 9.6	69.8 ± 1.9
UAAUACUACAUGUAAACCAAA	106 ± 4.5	86.6 ± 5.7	91.8 ± 9.8	107 ± 10
UAGGAUUACAUGUAAACCAAA	72.6 ± 13	15.4 ± 2.5	58.9 ± 7.8	54.9 ± 11
UCUCAUUACAUGUAAACCAAA	108 ± 15	71.3 ± 11	88.5 ± 7.8	22 ± 1.4
UCCAACAACAUGUAAACCAAA	111 ± 28	75.5 ± 15	78.2 ± 14	70.2 ± 10
UGUAAAUACAUGUAAACCAAA	92.4 ± 4.3	88.2 ± 15	68.2 ± 8	86.2 ± 2.7

Sequence	cell viability (3LL) [%]	cell viability (M565) [%]	cell viability (HeyA8) [%]	cell viability (H460) [%]
UCCGCGAACAUGUAAACCAAA	105 ± 18	70.4 ± 12	75.5 ± 5.7	67.5 ± 5.8
UAUCGUAACAUGUAAACCAAA	122 ± 20	94 ± 6.9	95.4 ± 8.9	112 ± 14
UCCGAGUACAUGUAAACCAAA	93.8 ± 20	49.5 ± 7.2	81.5 ± 4.5	63.4 ± 8.6
UGCGGAUACAUGUAAACCAAA	35.9 ± 3.9	26.1 ± 5.4	17.3 ± 3	28.6 ± 2.1
UCGAGCCACAUGUAAACCAAA	38.8 ± 8.4	17 ± 6.5	37.8 ± 2.9	56.8 ± 2
UUAGGGAACAUGUAAACCAAA	78.3 ± 8.1	83.3 ± 6.5	86.3 ± 7.8	82.5 ± 11
UGAGCGUACAUGUAAACCAAA	79.6 ± 17	29.5 ± 3.5	87.4 ± 2.6	58.4 ± 8.4
UAAUGUGACAUGUAAACCAAA	110 ± 12	91.2 ± 25	84.4 ± 11	73.6 ± 4
UUCGUCCACAUGUAAACCAAA	30 ± 10	51.9 ± 5.7	39.4 ± 5.4	47.7 ± 3
UCGCCUGACAUGUAAACCAAA	87.2 ± 12	64.5 ± 5.9	80.3 ± 8.6	77.2 ± 5.3
UAUUCUUACAUGUAAACCAAA	107 ± 15	102 ± 5.4	97.3 ± 13	88.1 ± 2.9
UUUAAACACAUGUAAACCAAA	105 ± 3.7	92.3 ± 5.6	104 ± 4.4	82 ± 18
UUAAGGAACAUGUAAACCAAA	83.2 ± 10	61 ± 5.3	85.6 ± 5.3	79.4 ± 9.2
UGCUUCCACAUGUAAACCAAA	57.8 ± 9	21.2 ± 9.2	19.3 ± 2.2	47.8 ± 4
UCGAUUCACAUGUAAACCAAA	86.7 ± 16	50.1 ± 8	60 ± 2.7	63.8 ± 11
UAUUAAAACAUGUAAACCAAA	111 ± 20	95.6 ± 6.9	97.9 ± 14	96.6 ± 10
UCAACAUACAUGUAAACCAAA	91.4 ± 22	77.5 ± 12	83.3 ± 6.1	75.9 ± 10
UGCGGAGACAUGUAAACCAAA	82.8 ± 7.4	29.2 ± 2.9	23.5 ± 0.41	39.1 ± 1.9
UUCGGGUACAUGUAAACCAAA	2.67 ± 0.65	28.4 ± 3.6	67 ± 7.7	15.9 ± 2.6
